Data published in PubChem BioAssay AID894 (National Center for Advancing Translational Sciences (NCATS), 2007).
Several values for one entry are separate records, joined by “and”; a condition that tells them apart may be missing. Identical values can stand only once. Among all 150,000 compounds or so, about 6,500 (4.3%) were called active. Inconclusive results, whose numbers are uncertain, are shown with a selection of clear calls. Calls follow the shape of the dose curve; as a rule, active = well fitted inhibition curve with a large enough effect (not every such curve was filed as active); inconclusive = small, poorly fitted or top-dose-only effect, or another doubt; inactive = no such curve, though single readings can be large or run the other way. Potencies of inconclusive entries are doubtful fits and often do not repeat.

The molecules below were run against 15-hydroxyprostaglandin dehydrogenase [NAD(+)] (Homo sapiens) (UniProt P15428) (assay: qHTS Assay for Inhibitors of HPGD (15-Hydroxyprostaglandin Dehydrogenase)). Conditions: purified HPGD, NADH fluorescence kinetic, PGE2 substrate; activity change, negative = inhibition: stronger effect = lower value.
Sequence of UniProt P15428 (P15428 whole entry, looked up): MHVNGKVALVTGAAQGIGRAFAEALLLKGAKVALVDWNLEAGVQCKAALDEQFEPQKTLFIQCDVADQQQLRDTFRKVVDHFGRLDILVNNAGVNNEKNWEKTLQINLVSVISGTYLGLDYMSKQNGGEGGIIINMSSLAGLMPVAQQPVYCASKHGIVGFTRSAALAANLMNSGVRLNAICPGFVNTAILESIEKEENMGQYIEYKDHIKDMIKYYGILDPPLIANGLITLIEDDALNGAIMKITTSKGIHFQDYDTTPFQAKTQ
In short: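 20 nM HPGD preincubated 15 min at room temperature with compound in 50 mM Tris-HCl pH 8, 0.01% Tween 20. Started with 1 mM NAD+ and 30 uM prostaglandin E2; NADH fluorescence (360/450 nm) read 5 times over 30-s intervals, last minus first.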
% is scaled to controls: 0 for no effect and ±100 for the full control effect; potency is read from the fitted curve at half-maximal effect; tags tell the direction and shape of the fitted curve.

Potency, inconclusive:
C/C(=N/NC(=O)C1COc2ccccc2O1)c1ccco1 (stereo not given) 10 µM [inhibitor, partial curve]
O=C(CNC(=O)c1ccc2c(c1)OCO2)N/N=C(Br)/C=C/c1ccccc1 28.2 µM [inhibitor, partial curve]
CCCCn1c(-c2csc3ccccc23)n[nH]c1=S 12.6 µM [inhibitor, partial curve]
COc1cccc(Nc2nc(-c3cccs3)nc3ccccc23)c1 31.6 µM [inhibitor, partial curve]
C=CCN(CC=C)C(=S)NC(=O)c1ccc(-c2ccccc2)cc1 31.6 µM [inhibitor, partial curve, poor fit]
N#Cc1nc(-c2ccc(OCc3ccccc3)cc2)oc1NCc1cccnc1 28.2 µM [inhibitor, partial curve]
O=c1c(-c2ccccc2)coc2c(CN3CCCC3)c(O)ccc12 28.2 µM [inhibitor, partial curve]
Cc1cccc(-n2ncc3c(N4CCc5ccccc54)ncnc32)c1 12.6 µM [inhibitor, partial curve]
CCOC(=O)NCc1cc(-c2nn(C)c(=O)c3ccccc23)ccc1C 25.1 µM [inhibitor, single point]
Nc1c(C(=O)NCc2ccco2)sc2nc(N3CCOCC3)c3c(c12)CCCC3 31.6 µM [inhibitor, partial curve]
Cc1nn2c(NCCCN3CCOCC3)c3c(nc2c1-c1ccccc1)CCC3 28.2 µM [inhibitor, partial curve]
COCCn1c(=O)[nH]c2cc(C(=O)NCCN3CCN(c4ccc(OC)cc4)CC3)ccc2c1=O 31.6 µM [inhibitor, partial curve]
O=C(CCCCCCCC(=O)NCC1CCCO1)NCC1CCCO1 (stereo not given) 31.6 µM [inhibitor, partial curve, poor fit]
COc1ccc(C(=O)c2ccc(Cl)c([N+](=O)[O-])c2)cc1 39.8 µM [inhibitor, single point]
COc1cc(C(C[N+](=O)[O-])c2c(-c3ccccc3)cc3ccccn23)cc(OC)c1OC (stereo not given) 12.6 µM [inhibitor, partial curve]
O=C(Oc1ccccc1C(=O)O)c1ccccc1O 17.8 µM [inhibitor, partial curve]
CCc1[nH]c(=O)c(C#N)c2c1CCCC2 28.2 µM [inhibitor, partial curve]
COc1cc(C2Nc3ccccc3C(=O)N2c2ccccc2)c(Br)cc1OCC(=O)O (stereo not given) 15.8 µM [inhibitor, partial curve]
O=C(Nc1ccc(Oc2ccc(Cl)cc2)cc1)c1ncn[nH]1 15.8 µM [inhibitor, partial curve]
Nc1nc2nc(-c3ccc(Cl)cc3)cc(C(F)(F)F)n2n1 15.8 µM [inhibitor, partial curve]
O=C(Nc1ncc2c(n1)-c1ccccc1OC2)c1ccc(Cl)cc1 31.6 µM [inhibitor, partial curve]
CN(C)S(=O)(=O)c1cccc(NC(=O)CCNC(=O)c2ccccc2Cl)c1 35.5 µM [inhibitor, partial curve]
CCN(C(=O)COC(=O)c1cc(-c2cccc3ccccc23)nc2ccccc12)C1CCS(=O)(=O)C1 (stereo not given) 39.8 µM [inhibitor, single point]
Cc1ccc(Nc2nc(-c3ccc(S(=O)(=O)N4CCOCC4)cc3)cs2)cc1Cl 28.2 µM [inhibitor, partial curve]
O=C(N/N=C/c1ccc2cccc(OCc3ccccc3)c2n1)c1ccc(Cl)cc1 10 µM [inhibitor, partial curve]
Cc1ccc2nc(NC(=O)c3ccc4ncsc4c3)sc2c1 39.8 µM [inhibitor, single point]
CCCc1cc(=O)oc2cc(OCC(=O)Nc3cc(C)on3)ccc12 22.4 µM [inhibitor, partial curve]
Cc1ccccc1Oc1ncnc2oc(-c3ccccc3)cc12 35.5 µM [inhibitor, single point]
COC(=O)C1=C(CSc2nc3c(cc2C#N)CN(C)CC3)OC(N)=C(C#N)C1c1ccc(F)cc1 (stereo not given) 31.6 µM [inhibitor, single point]
CCOC(=O)c1c(NC(=O)C2CCCO2)sc(C(=O)OC(C)(C)C)c1C (stereo not given) 14.1 µM [inhibitor, partial curve]
Cn1c(C(=O)O)c(CC(=O)NCc2cccnc2)c2ccccc21 35.5 µM [inhibitor, partial curve]
CCOC(=O)c1cnn2c(C)cc(-c3ccccc3)nc12 35.5 µM [inhibitor, partial curve]
COc1ccccc1/C=C/C(=O)OCC(=O)Nc1ccccc1Sc1ccccc1 31.6 µM [inhibitor, partial curve]
CCC(=O)N/N=C(\C)CC(=O)Nc1ccc2ccccc2c1 5.01 µM [inhibitor, partial curve, poor fit]
CSc1nnc(-c2ccccc2)o1 39.8 µM [inhibitor, partial curve]
COc1ccccc1-n1cnc2c(c1=O)c1nc3ccccc3nc1n2-c1ccc(C)c(C)c1 31.6 µM [inhibitor, single point]
CCOCCCn1cnc2c(c1=O)c1nc3ccccc3nc1n2-c1ccccc1 25.1 µM [inhibitor, single point]
COc1ccc2[nH]c(=O)c(C(c3nnnn3C3CCCCC3)N3CCN(C)CC3)cc2c1 (stereo not given) 25.1 µM [inhibitor, partial curve]
Cc1ccc(-n2ncc3c(=O)n(CC(=O)Nc4cccc(Cl)c4)cnc32)cc1C 20 µM [inhibitor, partial curve]
O=C(C[n+]1ccc(-c2nnc3n2CCC3)cc1)c1ccc(Cl)cc1 20 µM [inhibitor, single point]
CC(C)NC(=O)c1cc2nc(-c3ccco3)cc(C(F)(F)F)n2n1 25.1 µM [inhibitor, single point]
COC(=O)c1cc(NC(=O)Nc2ccccc2OC)cc(C(=O)OC)c1 25.1 µM [inhibitor, partial curve]
COc1cc(OC)c(OC)cc1/C=N/NC(=S)NCC1CCCO1 (stereo not given) 22.4 µM [inhibitor, partial curve]

Potency, active:
N#C/C(=N\Nc1ccccc1Cl)C(=O)c1ccccc1 28.2 µM
O=C(CCC1CCCCC1)NCc1cccs1 10 µM
C=CCNC(=O)c1ccc(CNS(=O)(=O)c2ccc(NC(C)=O)cc2)cc1 20 µM
O=C(Cc1ccc2c(c1)CCCC2)Nc1ccccc1Cl 3.16 µM
O=S(=O)(NC1CCCCC1)c1ccc(-c2csnn2)s1 14.1 µM
O=[N+]([O-])c1ccc(/C=N/n2c(C3CCCCC3)n[nH]c2=S)cc1 4.47 µM
O=c1cc(O)n(-c2ccc(F)cc2)c(=S)[nH]1 28.2 µM
COc1ccc(-c2cc(C(=O)N3CC4(C)CC3CC(C)(C)C4)no2)cc1 (stereo not given) 35.5 µM
Cc1ccc(S(=O)(=O)NNc2ccccc2)c(C)c1 8.91 µM
O=C(Cn1nnc(-c2ccccc2)n1)N/N=C/c1cc([N+](=O)[O-])ccc1O 14.1 µM
Cc1cc(OC(=O)CNC(=O)OC(C)(C)C)c2c(C)cc(=O)oc2c1 17.8 µM
COC(=O)c1cccc(-n2nnnc2SCC(=O)Nc2nc3c(s2)CCCC3)c1 20 µM

Activity change, negative = inhibition, inactive:
O=C(c1ccc(Br)o1)N(Cc1ccccc1)Cc1ccccc1 -10.2% and -18.3%
CC(C)c1ccc(C2NC(=S)NC3=C2C(=O)CCC3)cc1 (stereo not given) -2.23%
COC(=O)CC1C(=O)NCCN1C(=S)Nc1ccccc1 (stereo not given) -14.4%
COc1cccc(NC(=O)Cn2cnc3sc(C)c(S(=O)(=O)N4CCCCC4)c3c2=O)c1 -5.47%
COc1ccc(NC(=O)CSc2ccc(F)cc2)cc1S(=O)(=O)N1CCCCC1 -1.67%
C[C@H](Oc1ccc(Oc2cnc3ccc(Cl)cc3n2)cc1)C(=O)O -10.5%
C=CCOc1ccc(CNc2nccs2)cc1OCC -18.8%
O=C(NN1c2ccccc2CCc2ccccc21)c1ccccc1Br -7.3%
CSc1ccccc1C(=O)Nc1cccc(N(C)S(C)(=O)=O)c1 -1.97%
COc1ccc(S(=O)(=O)N2CCC(C(=O)NCC3CCCO3)CC2)cc1C (stereo not given) -14.5%
CC1CCCN(C2=C(Cl)C(=O)N(c3cccc(Cl)c3)C2=O)C1 (stereo not given) -19.7%
CCn1cc(CNC(=O)c2cc([N+](=O)[O-])c(C)c([N+](=O)[O-])c2)cn1 -7.17%
O=C(OCC(=O)N1CCc2ccccc21)C1=COCCO1 -12.2%
CCOC(=O)N1CCN(c2c(-c3ccc(C(C)C)cc3)c(=O)c2=O)CC1 -12.4%
O=C(COC(=O)C1CC(O)CN1S(=O)(=O)c1ccc(Cl)cc1)c1ccccc1Cl (stereo not given) -1.67%
